# According to PubChem BioAssay AID686979 (National Center for Advancing Translational Sciences (NCATS), 2013):
# Values joined by “and” are separate entries in the source; they are usually repeats but may differ in a detail not shown here. Identical values can stand only once. The campaign covered roughly 420,000 compounds. About 50,000 (12%) were called active. Inconclusive means that the source gave no clear call. Such entries were picked first, then a sample of the others. Calls come from the whole dose curve; as a rule, active = well fitted inhibition curve with a large enough effect; inconclusive = small, poorly fitted or top-dose-only effect; inactive = flat fitted curve, though single readings scatter. Potencies beside an inconclusive call are fits to weak or partial responses and may not hold up.
# Assay: qHTS for Inhibitors of human tyrosyl-DNA phosphodiesterase 1 (TDP1): qHTS in cells in presence of CPT; note: nearly all actives have a fitted effect of over 55% in size
# Settings: chicken DT40 Tdp1-/-;hTDP1 cells + 20 nM CPT, ATP luminescence, 48 h
# How it was run: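 Cell growth measured by CellTiter-Glo luminescence after a minimum 48 h, 37 C compound exposure with 20 nM CPT in Tdp1-knockout DT40 cells stably expressing hTDP1, seeded 400/well; qHTS titration format.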
# [1] = activity change, negative = growth inhibition: at 46.2 µM (top of the series)
# % is set by controls: 0 for no effect and ±100 for the full control effect; potency is the fitted concentration of half-maximal effect; tags give direction and shape of the fitted curve.
smiles,measurement,setting,value
Cc1cc(C)nc(Nc2nc(C(N)CCc3ccccc3)cs2)n1 (stereo unspecified),Potency,[1],"inconclusive: 20.6 µM [inhibitor, single point]"
COc1ccc(C(C)=O)cc1COC(=O)c1cc2ccccc2cc1O,Potency,[1],"inconclusive: 29.1 µM [inhibitor, single point]"
COc1cc(Cn2c(-c3nonc3N)nc3ccccc32)ccc1C,Potency,[1],active: 2.91 µM
CC1(c2ccccc2Cl)NC(=O)N(CC(=O)Nc2ccc3c(c2)OCO3)C1=O (stereo unspecified),Potency,[1],inactive
O=C(Oc1cccc([N+](=O)[O-])c1)C1CCN(C(=O)c2ccc(F)cc2)CC1,Potency,[1],inactive
Cc1c(Cl)cccc1NC(=O)Cn1nnc(-c2nc(-c3ccccc3)no2)c1N,Potency,[1],inactive
Cc1cccc(C(=O)NC(=S)Nc2cccc3nc(C)ccc23)c1,Potency,[1],"inconclusive: 29.1 µM [inhibitor, single point]"
Cc1ccccc1CSc1nnc2ccc(-c3ccncc3)nn12,Potency,[1],inactive
CCCOc1ccc(C(=O)Nc2ccc3oc(-c4ccc(N(C)C)cc4)nc3c2)cc1,Potency,[1],inactive
O=C(NCC1CCCN1S(=O)(=O)c1cccs1)c1cccc([N+](=O)[O-])c1 (stereo unspecified),"activity change, negative = growth inhibition",[1],inconclusive: -32.1% [inhibitor]
CC(OC(=O)CNC(=O)C12CC3CC(CC(C3)C1)C2)C(=O)Nc1ncc(Cl)cc1Cl (stereo unspecified),"activity change, negative = growth inhibition",[1],inconclusive: -34.1% [inhibitor]
CCC(=O)n1nc(-c2ccccc2)nc1NCc1ccccc1,Potency,[1],inactive
CN1CCC2(CC1)CCN(C(=O)c1ccncc1)CC2,Potency,[1],inactive
Cc1ccc(NC(=O)CSc2nc3cc(C(=O)NCC4CCCO4)ccc3c(=O)n2CC2CCCO2)cc1 (stereo unspecified),Potency,[1],"inconclusive: 29.1 µM [inhibitor, single point]"
CCOC(=O)CN(c1ccccn1)S(=O)(=O)c1ccccc1,Potency,[1],inactive
CCOC(=O)[C@]12CCC=C1N(Cc1cccc3ccccc13)C(=O)[C@H](CC(=O)NCC1CCCCC1)C2,Potency,[1],active: 23.1 µM
N#CCCn1cc(/C=N/NC(=O)c2ccncc2)c(-c2ccccc2)n1,Potency,[1],inactive
Cc1ccc(N2CC(C(=O)OCC(=O)c3ccc([N+](=O)[O-])cc3)CC2=O)cc1 (stereo unspecified),Potency,[1],inactive
CN(O)C(=S)c1ccccc1,Potency,[1],active: 0.13 µM
CCC1=C[C@@H]2CN(C1)Cc1c([nH]c3ccccc13)[C@@](C(=O)OC)(c1cc3c(cc1OC)N(C)[C@H]1[C@@](O)(C(=O)OC)[C@H](OC(C)=O)[C@]4(CC)C=CCN5CC[C@]31[C@@H]54)C2,Potency,[1],active: 141 nM and active: 59.6 nM
COc1ccc(C(C[N+](=O)[O-])c2c(C)cc3ccccn23)cc1 (stereo unspecified),Potency,[1],active: 10.3 µM
O=C1CNC(=S)N1Cc1ccccc1Cl,Potency,[1],inactive
O=C(O)CCCn1cc(NC(=O)c2c(F)cccc2F)cn1,Potency,[1],inactive
CCc1cc(=O)[nH]c(SCC(=O)Nc2ccc3c(c2)OCCO3)n1,Potency,[1],inactive
CCn1cc(C(=O)NCCc2ccc(C)cc2)c(=O)c2cc(S(=O)(=O)N3CCC(C)CC3)ccc21,Potency,[1],"inconclusive: 29.1 µM [inhibitor, single point]"
CCCOc1ccc(OC(=O)c2cn(-c3ccc(OC)cc3)c(=O)c3ccccc23)cc1,Potency,[1],"inconclusive: 23.1 µM [inhibitor, single point]"
Cc1ccc(S(=O)(=O)c2c(C)cc(C)nc2Oc2cccc(C(F)(F)F)c2)cc1,Potency,[1],"inconclusive: 29.1 µM [inhibitor, single point]"
c1ccc(-c2nnc(N3CCCC3)nc2-c2ccccc2)cc1,Potency,[1],"inconclusive: 23.1 µM [inhibitor, single point]"
O=S(=O)(NCC1CCCO1)c1ccc(S(=O)(=O)N(Cc2ccccc2F)C2CCCCC2)cc1 (stereo unspecified),Potency,[1],active: 13 µM
O=C(NC1CCCC1)c1c[nH]c2ccc(F)cc2c1=O,Potency,[1],"inconclusive: 20.6 µM [inhibitor, single point]"
Cn1c(-c2ccc(F)cc2)cnc1NCc1cccc([N+](=O)[O-])c1,Potency,[1],"inconclusive: 8.2 µM [inhibitor, partial curve]"
C[C@H]1COC(=O)[C@H](Cc2ccc(F)cc2)C/C=C\C[C@@H](CC(=O)NCCO)C(=O)N1,Potency,[1],inactive
CN(C)C(=O)[C@@H]1C[C@@H](Sc2nc3ccccc3[nH]2)CN1Cc1ccnc2ccccc12,Potency,[1],active: 16.4 µM
O=C(Nc1ccc2nc3n(c(=O)c2c1)CCCC3)c1cncc(Br)c1,Potency,[1],"inconclusive: 29.1 µM [inhibitor, single point]"
O=C(CCc1ccccc1)OCCOC(=O)CCc1ccccc1,Potency,[1],inactive
C/C(N)=C(/C#N)C(=O)COC(=O)Cc1coc2cc(C)ccc12,Potency,[1],inactive
OC1C=CSc2nc3ccccc3n21 (stereo unspecified),Potency,[1],active: 13 µM
Cc1nnc(SCC(=O)Nc2nc(C(C)(C)C)cs2)s1,Potency,[1],"inconclusive: 29.1 µM [inhibitor, single point]"
Cc1cc(C)c2cc(C#N)c(SCC(=O)Nc3cc(C)on3)nc2c1,Potency,[1],"inconclusive: 14.6 µM [inhibitor, partial curve]"
COc1ccc(OC)c(NC(=O)CN2C(=O)c3ccccc3S2(=O)=O)c1,Potency,[1],inactive
Cc1cccc(N2CCN(C(=O)c3ccc4c(Cl)c5c(nc4c3)CCCC5)CC2)c1C,Potency,[1],active: 18.4 µM
CC(NC(=O)CN1CCN(c2cccc(Cl)c2)CC1)c1ccccc1 (stereo unspecified),"activity change, negative = growth inhibition",[1],inconclusive: -33.2% [inhibitor]
CCOc1ccccc1NC(=O)C1=C(C)Nc2ncnn2C1c1cccs1 (stereo unspecified),Potency,[1],inactive
CCOc1ccc2[nH]cc(-c3csc(N)n3)c2c1,Potency,[1],"inconclusive: 8.2 µM [inhibitor, partial curve]"
Cn1c(CN2CCCC2)nc2cc(NC(=O)c3ccc(Cl)cc3)ccc21,Potency,[1],"inconclusive: 18.4 µM [inhibitor, single point]"
COc1ccc(NC(=O)Cn2nc(C(F)(F)F)c3c2CCCC3)cc1OC,Potency,[1],"inconclusive: 25.9 µM [inhibitor, single point] and inconclusive: 13 µM [inhibitor, partial curve]"
CN(C)S(=O)(=O)N(CC(=O)Nc1ccccc1)c1ccccc1,Potency,[1],inactive
COc1ccc(Oc2coc3cc(OC(=O)N4CCOCC4)ccc3c2=O)cc1,Potency,[1],active: 16.4 µM
COc1cccc(-c2nn3c(=O)cc(CN4CCN(C(=O)/C=C/c5ccccc5)CC4)nc3s2)c1,Potency,[1],"inconclusive: 29.1 µM [inhibitor, single point]"
CC(=O)c1cccc(NC(=O)c2cc(C)nc3c2c(C)nn3-c2cccc(Cl)c2C)c1,Potency,[1],"inconclusive: 29.1 µM [inhibitor, single point]"
COc1ccc(S(=O)(=O)Nc2ccc3ccccc3c2)cc1C,Potency,[1],active: 9.2 µM
COCC(=O)N1CCC(Oc2ccc(C(=O)N3CCCCCCC3)cc2)CC1,Potency,[1],"inconclusive: 7.31 µM [inhibitor, partial curve]"
C/C(=N\Nc1nc2ccccc2s1)c1cccs1,Potency,[1],"inconclusive: 29.1 µM [inhibitor, single point]"
COC(=O)[C@]1(C)N[C@H](CN(C)C(=O)Nc2ccc(Cl)cc2)[C@@H]2C(=O)N(Cc3ccccc3)C(=O)[C@@H]21,Potency,[1],"inconclusive: 18.4 µM [inhibitor, single point]"
COc1ccc(CNC(=O)C2=CC(c3cccc(OC)c3)=NS(=O)(=O)N2C)cc1,Potency,[1],inactive
O=C(Nc1ccc(S(=O)(=O)NCc2ccco2)cc1)C1CCCCC1,Potency,[1],inactive
CCn1c(=O)[nH]c2ccccc21,Potency,[1],inactive
COc1ccc(CNc2nc3c(c(=O)[nH]c(=O)n3C)n2Cc2ccccc2)cc1,Potency,[1],inactive
CCN1C(=O)[C@H]2[C@@H](c3ccc(C)cc3)N3C(=O)N(c4cccc(Cl)c4)C(=O)[C@@]3(Cc3ccccc3)[C@H]2C1=O,Potency,[1],"inconclusive: 16.4 µM [inhibitor, single point]"
FC(F)(F)c1cnc2c(c1)[nH]c(=S)n2-c1ccc(Cl)cc1,Potency,[1],active: 20.6 µM
C/C(=N/NC(=O)c1ccncc1)c1cc2ccc(O)cc2oc1=O,Potency,[1],inactive
COc1ccc(CNc2ncnc3c2[nH]c2cc(OC)c(OC)cc23)cc1,Potency,[1],"inconclusive: 29.1 µM [inhibitor, single point]"
COc1ccc(C(=O)CC(SCC(NC(C)=O)C(=O)O)c2ccc(Cl)cc2)cc1OC (stereo unspecified),Potency,[1],active: 14.6 µM
Cc1ccc(C(C)C)c(OCc2nc(-c3nonc3N)no2)c1,Potency,[1],active: 16.4 µM
COC(=O)c1c(-c2ccc(Cl)cc2)noc1N1CCN(c2ccc(F)cc2)CC1,Potency,[1],active: 20.6 µM
CCN(CC)c1nc(C#N)nc(N(CC)CC)n1,"activity change, negative = growth inhibition",[1],inconclusive: -23.1% [inhibitor]
same,"activity change, negative = growth inhibition",at 46.2 µM (top of the series),inactive: -0.786%
COc1ccc(S(=O)(=O)N2CCC(C(=O)NCCC(=O)Nc3ccccc3OC)CC2)cc1,Potency,[1],inactive
COc1ccccc1NC(=O)COc1ccccc1C(=O)c1cnn(-c2ccccc2)c1,Potency,[1],active: 20.6 µM
COc1ccccc1CNCc1ccc(OC)c(OC)c1OC,Potency,[1],"inconclusive: 29.1 µM [inhibitor, single point]"
CCCN(CC1CCCO1)C(=O)c1cc(COc2ccc(F)cc2F)on1 (stereo unspecified),Potency,[1],"inconclusive: 29.1 µM [inhibitor, single point]"
COc1ccc(-c2nc3cc(C)c(Br)c(C)n3c2Cc2cccc(F)c2)cc1OC,Potency,[1],"inconclusive: 29.1 µM [inhibitor, single point]"
O=C(Nc1ccc(F)cc1)c1cc(-c2ccncc2)nc2c(Cl)cccc12,Potency,[1],"inconclusive: 23.1 µM [inhibitor, single point]"
COc1ccc(C(C)(NC(C)=O)c2nc(-c3ccc(F)cc3OC)cs2)cc1 (stereo unspecified),Potency,[1],active: 14.6 µM
CCNc1nc(SCC(=O)Nc2ccc(Cl)c(Cl)c2)nc(N2CCOCC2)n1,Potency,[1],"inconclusive: 29.1 µM [inhibitor, single point]"
CC(C)c1cc(C(=O)NCc2ccccc2)no1,Potency,[1],inactive
